According to the supplement of paper PMC11125491:
± gives the standard deviation of the averaged measurements. Growth of baker's yeast expressing single-residue variants of Pneumocystis jirovecii dihydrofolate reductase in 8.8 or 44 µM methotrexate (about 75% and 90% inhibition of the wild type). Selection coefficient per generation; 0 = like wild type, above 0 = less sensitive, below 0 = more sensitive or loss of function. No active / inactive call per row; the paper calls resistant above 0.220 (8.8 µM) or 0.243 (44 µM) together with a significance test. At 44 µM about 15% of codons end with one read or none, so the lowest values are floors (replicate rank correlation 0.74; 0.94 at 8.8 µM).

B1: UniProt A0EPZ9; numbered along this chain (parent)
chain: MDWQKSLTLIVALTLSRGIGLKNDLPWKLKSDMMFFSRVTSGLLVTRSTGQMNVVLMGRKTWESLPAHSRPLKNRINVVISRQEVLDLGGGAYHARSLDDALALLSQIYDSTSKIQLNRVFVIGGGELCKAAMEHSRLNRIIATVIHNEVDCDVFFPIDFRSSQSCLPWRKQDHSVLEAWVGSKVPQGKINENGFIYEFEMWIRDI

Variants of: B1
Test: selection coefficient against synonymous wild-type codons (log2 per generation); higher = faster growth than wild type
Settings: with Saccharomyces cerevisiae carrying the variant on a plasmid
Method: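 Pooled growth of yeast carrying single-residue variants of P. jirovecii dihydrofolate reductase (own DFR1 gene intact), two passages at 30 °C, three cultures, sequenced before and after. Codons with under 15 starting reads are left out; codons of one change are averaged.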

Variant	selection coefficient against synonymous wild-type codons (log2) (methotrexate 8.8 µM)	selection coefficient against synonymous wild-type codons (log2) (methotrexate 44 µM)
E63T	-0.469 ± 0.087	-0.233 ± 0.069
E63S	-0.399 ± 0.12	-0.239 ± 0.074
M201A	0.0439 ± 0.046	-0.158 ± 0.083
K184H	-0.125 ± 0.021	-0.0369 ± 0.049
K184M	-0.172 ± 0.043	-0.113 ± 0.034
C166V	-0.0033 ± 0.025	-0.11 ± 0.15
P66S	-0.139 ± 0.087	-0.0745 ± 0.15
L21S	0.225 ± 0.056	0.184 ± 0.1
L21A	0.145 ± 0.045	0.154 ± 0.043
D87M	-0.45 ± 0.016	-0.244 ± 0.03
V181C	-0.0414 ± 0.056	-0.174 ± 0.18
V181F	0.00369 ± 0.048	-0.0011 ± 0.044
E127W	0.0175 ± 0.046	-0.0271 ± 0.044
L9Y	0.381 ± 0.031	0.471 ± 0.024
L9H	-0.347 ± 0.033	-0.222 ± 0.11
L9C	0.142 ± 0.028	0.0925 ± 0.049
N53Y	-0.326 ± 0.092	-0.225 ± 0.094
N53Q	-0.107 ± 0.093	-0.0675 ± 0.12
S175L	-0.221 ± 0.07	-0.205 ± 0.1
S175H	-0.0426 ± 0.017	-0.0633 ± 0.038
D153E	0.167 ± 0.06	0.0779 ± 0.085
D153V	-0.318 ± 0.031	-0.218 ± 0.12
D153T	-0.0424 ± 0.054	-0.179 ± 0.15

Variant	selection coefficient against synonymous wild-type codons (log2) (methotrexate 8.8 µM)	selection coefficient against synonymous wild-type codons (log2) (methotrexate 44 µM)
L43Y	-0.119 ± 0.1	-0.0938 ± 0.13
S183D	0.0276 ± 0.026	-0.0841 ± 0.11
S183A	-0.0351 ± 0.021	-0.148 ± 0.17
H94W	-0.0158 ± 0.041	0.000318 ± 0.023
H94D	-0.71 ± 0.016	-0.206 ± 0.06
H94Y	-0.445 ± 0.046	-0.161 ± 0.033
R38H	-0.0285 ± 0.023	-0.0232 ± 0.12
R38G	0.116 ± 0.053	0.159 ± 0.13
N139T	-0.0394 ± 0.057	0.00763 ± 0.15
F160Q	0.483 ± 0.0071	0.511 ± 0.023
F160G	0.506 ± 0.045	0.558 ± 0.03
L7E	-0.363 ± 0.08	-0.368 ± 0.018
N191Y	-0.108 ± 0.043	-0.0252 ± 0.01
N191F	-0.157 ± 0.0089	-0.194 ± 0.21
N191A	-0.0302 ± 0.039	-0.0921 ± 0.13
N191R	-0.0369 ± 0.067	-0.143 ± 0.12
N193M	-0.139 ± 0.042	-0.15 ± 0.071
I190C	-0.168 ± 0.07	-0.273 ± 0.018
I190F	-0.19 ± 0.033	-0.152 ± 0.14
D110M	-0.26 ± 0.047	-0.244 ± 0.068
M57W	-0.487 ± 0.059	-0.362 ± 0.061
M57S	-0.523 ± 0.086	-0.304 ± 0.053
L117V	0.00983 ± 0.021	0.025 ± 0.056

Variant	selection coefficient against synonymous wild-type codons (log2) (methotrexate 8.8 µM)	selection coefficient against synonymous wild-type codons (log2) (methotrexate 44 µM)
L65R	-0.281 ± 0.091	-0.189 ± 0.12
Y109T	0.00879 ± 0.03	-0.00112 ± 0.08
K73M	-0.279 ± 0.025	-0.084 ± 0.04
S31Y	-0.237 ± 0.057	-0.27 ± 0.21
S31K	0.000538 ± 0.028	-0.0247 ± 0.079
R17Q	0.287 ± 0.031	0.278 ± 0.058
D99L	-0.568 ± 0.12	-0.349 ± 0.088
D99I	-0.621 ± 0.11	-0.231 ± 0.064
F155M	0.193 ± 0.02	0.147 ± 0.04
L102S	-0.749 ± 0.072	-0.231 ± 0.11
S163V	-0.038 ± 0.036	-0.156 ± 0.1
W62Q	-0.501 ± 0.18	-0.296 ± 0.078
L86H	-0.0258 ± 0.048	-0.0862 ± 0.046
Q172P	-0.109 ± 0.11	-0.165 ± 0.088
D151Y	-0.271 ± 0.079	-0.378 ± 0.05
D151M	-0.217 ± 0.042	-0.311 ± 0.068
T14E	0.107 ± 0.015	0.112 ± 0.065
L56W	-0.509 ± 0.043	-0.303 ± 0.037
L56D	-0.612 ± 0.043	-0.365 ± 0.057
A143H	-0.00321 ± 0.1	-0.079 ± 0.06
S111K	0.0499 ± 0.03	0.117 ± 0.069
M34T	0.136 ± 0.068	0.0611 ± 0.15
D173M	-0.186 ± 0.044	-0.231 ± 0.15

Variant	selection coefficient against synonymous wild-type codons (log2) (methotrexate 8.8 µM)	selection coefficient against synonymous wild-type codons (log2) (methotrexate 44 µM)
R119F	-0.234 ± 0.05	-0.157 ± 0.12
L138K	-0.0939 ± 0.064	-0.113 ± 0.12
L138P	0.118 ± 0.035	0.0232 ± 0.16
V78T	-0.59 ± 0.032	-0.0878 ± 0.052
V78I	0.107 ± 0.039	0.179 ± 0.023
V78Q	-0.716 ± 0.054	-0.212 ± 0.036
V154Q	0.422 ± 0.052	0.426 ± 0.034
E200Y	0.188 ± 0.086	0.255 ± 0.07
W202D	-0.592 ± 0.11	-0.266 ± 0.035
W202Q	-0.389 ± 0.089	-0.287 ± 0.052
W202Y	0.0883 ± 0.051	-0.0689 ± 0.056
Q187S	-0.0263 ± 0.042	-0.148 ± 0.074
S106T	-0.102 ± 0.12	-0.0226 ± 0.089
V185W	-0.384 ± 0.04	-0.364 ± 0.14
V185G	-0.261 ± 0.09	-0.223 ± 0.14
V185R	0.0229 ± 0.042	0.0581 ± 0.071
V39F	0.222 ± 0.026	0.285 ± 0.089
V39T	0.0453 ± 0.039	0.017 ± 0.05
V39Y	-0.0111 ± 0.025	0.202 ± 0.07
V39G	-0.17 ± 0.046	0.0647 ± 0.033
L72G	-0.523 ± 0.062	-0.285 ± 0.12
N74R	-0.481 ± 0.16	-0.212 ± 0.064
G58N	-0.28 ± 0.13	0.0731 ± 0.037

Variant	selection coefficient against synonymous wild-type codons (log2) (methotrexate 8.8 µM)	selection coefficient against synonymous wild-type codons (log2) (methotrexate 44 µM)
G58C	-0.228 ± 0.036	-0.114 ± 0.018
G20S	0.0501 ± 0.13	0.0274 ± 0.13
G20E	-0.489 ± 0.037	-0.321 ± 0.16
G20N	-0.321 ± 0.052	-0.073 ± 0.016
H174R	-0.0376 ± 0.045	-0.0616 ± 0.11
H174L	-0.135 ± 0.081	-0.24 ± 0.18
T46V	-0.243 ± 0.085	-0.203 ± 0.11
D100S	-0.341 ± 0.096	-0.241 ± 0.085
H135L	-0.179 ± 0.079	-0.179 ± 0.19
I158P	0.345 ± 0.06	0.27 ± 0.1
I158R	0.043 ± 0.05	-0.0173 ± 0.095
I158Q	0.067 ± 0.058	0.00053 ± 0.048
S162R	-0.0669 ± 0.039	-0.172 ± 0.12
A131V	-0.226 ± 0.05	-0.239 ± 0.12
A103Y	-0.178 ± 0.028	-0.148 ± 0.08
A103T	0.00132 ± 0.029	0.032 ± 0.062
A103M	-0.069 ± 0.049	-0.0575 ± 0.21
G90A	-0.0254 ± 0.017	0.00965 ± 0.15
S6H	0.386 ± 0.025	0.295 ± 0.021
S6Q	0.213 ± 0.026	0.142 ± 0.042
K130G	-0.363 ± 0.05	-0.301 ± 0.1
K130F	-0.336 ± 0.031	-0.29 ± 0.17
K130L	-0.23 ± 0.05	-0.177 ± 0.14
